# This is one part of the list.
# Legend:
# Test in all cases: glycan array binding signal (z-score within array); higher = stronger binding
# Conditions in all cases: glycan notation: IUPAC condensed, linker removed
# [1] = target: Neu5Ac(a2-8)Neu5Ac
# Summary of the method: (§1)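 From the Consortium for Functional Glycomics database, 3228 arrays were curated, keeping only those whose protein sequence was available. Binding is given as a within-array Z-score averaged across arrays sharing a protein sequence and across linkers. Negative Z-scores can be read as non-binding.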
# [2] = target: Neu5Ac(a2-8)Neu5Ac(a2-3)Gal(b1-3)GalNAc(b1-4)[Neu5Ac(a2-3)]Gal(b1-4)Glc
# Summary of the method: as §1
# [3] = target: Neu5Ac(a2-8)Neu5Ac(a2-3)Gal(b1-3)GalNAc(b1-4)[Neu5Ac(a2-8)Neu5Ac(a2-3)]Gal(b1-4)Glc
# Summary of the method: as §1
# [4] = target: Neu5Ac(a2-8)Neu5Ac(a2-3)Gal(b1-4)Glc
# Summary of the method: as §1
# [5] = target: Neu5Ac(a2-8)Neu5Ac(a2-3)Gal(b1-4)GlcNAc
# Summary of the method: as §1
# [6] = target: Neu5Ac(a2-8)Neu5Ac(a2-3)[Gal(b1-3)GalNAc(b1-4)]Gal(b1-4)Glc
# Summary of the method: as §1
# [7] = target: Neu5Ac(a2-8)Neu5Ac(a2-3)[GalNAc(b1-4)]Gal(b1-4)Glc
# Summary of the method: as §1
# [8] = target: Neu5Ac(a2-8)Neu5Ac(a2-8)Neu5Ac
# Summary of the method: as §1
# [9] = target: Neu5Ac(a2-8)Neu5Ac(a2-8)Neu5Ac(a2-3)Gal(b1-4)Glc
# Summary of the method: as §1
# [10] = target: Neu5Ac(a2-8)Neu5Ac(a2-8)Neu5Ac(a2-3)[Gal(b1-3)GalNAc(b1-4)]Gal(b1-4)Glc
# Summary of the method: as §1
# [11] = target: Neu5Ac(a2-8)Neu5Ac(a2-8)Neu5Ac(a2-3)[GalNAc(b1-4)]Gal(b1-4)Glc
# Summary of the method: as §1
# [12] = target: Neu5Ac(a2-8)Neu5Ac(a2-8)Neu5Ac(a2-8)Neu5Ac(a2-3)[GalNAc(b1-4)]Gal(b1-4)Glc
# Summary of the method: as §1
# [13] = target: Neu5Ac(a2-8)Neu5Gc(a2-3)Gal(b1-4)GlcNAc
# Summary of the method: as §1
# [14] = target: Neu5Ac(b2-6)Gal(b1-4)GlcNAc
# Summary of the method: as §1
# [15] = target: Neu5Ac(b2-6)GalNAc
# Summary of the method: as §1
# [16] = target: Neu5Ac9Ac(a2-3)Gal(b1-3)GlcNAc
# Summary of the method: as §1
# [17] = target: Neu5Ac9Ac(a2-3)Gal(b1-4)GlcNAc
# Summary of the method: as §1
# [18] = target: Neu5Ac9Ac(a2-6)Gal(b1-4)GlcNAc
# Summary of the method: as §1
# [19] = target: Neu5Gc(a2-3)Gal(b1-3)GlcNAc
# Summary of the method: as §1
# [20] = target: Neu5Gc(a2-3)Gal(b1-3)[Fuc(a1-4)]GlcNAc
# Summary of the method: as §1
# [21] = target: Neu5Gc(a2-3)Gal(b1-4)Glc
# Summary of the method: as §1
# [22] = target: Neu5Gc(a2-3)Gal(b1-4)GlcNAc
# Summary of the method: as §1
# [23] = target: Neu5Gc(a2-3)Gal(b1-4)GlcNAc(b1-3)Gal(b1-4)GlcNAc(b1-2)Man(a1-3)[Neu5Gc(a2-3)Gal(b1-4)GlcNAc(b1-3)Gal(b1-4)GlcNAc(b1-2)Man(a1-6)]Man(b1-4)GlcNAc(b1-4)GlcNAc
# Summary of the method: as §1
# [24] = target: Neu5Gc(a2-3)Gal(b1-4)[Fuc(a1-3)]GlcNAc
# Summary of the method: as §1
# [25] = target: Neu5Gc(a2-6)Gal(b1-4)GlcNAc
# Summary of the method: as §1
# [26] = target: Neu5Gc(a2-6)GalNAc
# Summary of the method: as §1
# [27] = target: Neu5Gc(a2-8)Neu5Ac(a2-3)Gal(b1-4)GlcNAc
# Summary of the method: as §1
# [28] = target: Neu5Gc(a2-8)Neu5Gc(a2-3)Gal(b1-4)GlcNAc
# Summary of the method: as §1
# [29] = target: Neu5Gc(a2-8)Neu5Gc(a2-3)Gal(b1-4)GlcNAc(b1-3)Gal(b1-4)GlcNAc
# Summary of the method: as §1
# [30] = target: Neu5Gc(a2-8)Neu5Gc(a2-6)Gal(b1-4)GlcNAc
# Summary of the method: as §1
# [31] = target: Neu5Gc(b2-6)Gal(b1-4)GlcNAc
# Summary of the method: as §1
binder,measurement,setting,value
VLRB.aGPA.23-GCN4-biotin (Petromyzon marinus) (protein) ACPSQCSCSGTEVNCAGKSLASVPAGIPTTTRVLYLNSNQITKLEPGVFDRLANLRELHLWGNQLVSLPPGVFDNLANLEKLWLNSNQLTSLPAGLFDRLVNLEHLGLCCMKLTELPSGAFDKLTRLKQLGLDQNQLKSIPDGAFARLPSLTHVWLHTNPWDCQCTDILYLSGWVAQHSSIVGEGWPWRHSPDSAKCSGTNTPVRAVTEASTSPSKCP,glycan array binding signal (z-score),[1],-0.074
same,glycan array binding signal (z-score),[2],-0.084
same,glycan array binding signal (z-score),[3],-0.068
same,glycan array binding signal (z-score),[4],-0.084
same,glycan array binding signal (z-score),[5],-0.083
same,glycan array binding signal (z-score),[6],-0.076
same,glycan array binding signal (z-score),[7],-0.083
same,glycan array binding signal (z-score),[8],-0.08
same,glycan array binding signal (z-score),[9],-0.085
same,glycan array binding signal (z-score),[10],-0.082
same,glycan array binding signal (z-score),[11],-0.062
same,glycan array binding signal (z-score),[12],-0.078
same,glycan array binding signal (z-score),[13],-0.085
same,glycan array binding signal (z-score),[14],-0.082
same,glycan array binding signal (z-score),[15],-0.082
same,glycan array binding signal (z-score),[16],-0.082
same,glycan array binding signal (z-score),[17],-0.045
same,glycan array binding signal (z-score),[18],-0.073
same,glycan array binding signal (z-score),[19],-0.078
same,glycan array binding signal (z-score),[20],-0.074
same,glycan array binding signal (z-score),[21],-0.068
same,glycan array binding signal (z-score),[22],-0.084
same,glycan array binding signal (z-score),[23],-0.074
same,glycan array binding signal (z-score),[24],-0.074
same,glycan array binding signal (z-score),[25],-0.076
same,glycan array binding signal (z-score),[26],-0.075
same,glycan array binding signal (z-score),[27],-0.085
same,glycan array binding signal (z-score),[28],-0.087
same,glycan array binding signal (z-score),[29],-0.078
same,glycan array binding signal (z-score),[30],-0.082
same,glycan array binding signal (z-score),[31],-0.07
